PubChem BioAssay AID1347120 (National Center for Advancing Translational Sciences (NCATS), 2019)
The whole screen tested about 390,000 compounds, of which about 930 (0.24%) were called active. Inconclusive means that the source gave no clear call. Such entries were picked first, then a sample of the others. Calls follow the shape of the dose curve; as a rule, active = well fitted activation curve with a large enough effect; inconclusive = small, poorly fitted or top-dose-only effect; inactive = no such curve, though single readings can be large or run the other way. Where the call is inconclusive, the potency comes from a doubtful curve fit.

Assay: qHTS for Suppressors of FUS Proteinopathy: Primary screen using FUS-linked yeast assay; also: nearly all actives have a fitted effect of over 55% in size;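 as to growth rescue (activation): plate controls were DMSO vehicle for no effect and reference control for full effect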
Conditions: S. cerevisiae FUS-expressing, OD600, 24 h; Potency: growth rescue; growth rescue (activation): at 76.6 µM (top of the series)
In short: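 Absorbance at 600 nm, taken 24hr after compound addition, measured rescue of FUS-yeast growth at 30C. Induction used 2% galactose with seeding at OD 0.005. Controls: CP55940 from 92uM final, DMSO only.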
Potency is read from the fitted curve at half-maximal effect; tags tell the direction and shape of the fitted curve.

With COc1ccc2c(c1)CC/C(=C/c1cc(OC)c(OC)c(OC)c1)C2=O as the molecule, how does the Potency read?
The Potency was “inactive”.

For CCOC(=O)c1c(C)oc2ncnc(N3CCN(c4ccccc4OC)CC3)c12, which Potency is on record?
Its Potency is inconclusive: 20 µM [activator, partial curve, poor fit].

Which Potency does the source give for CC(C)C1C(=O)N(Cc2cn(CCC3OCCO3)nn2)CCS(=O)(=O)N1Cc1ccc(-c2ccc(F)cc2)cc1 (stereo not given) here?
The Potency was inconclusive: 39.8 µM [activator, single point].

With CCOc1ccc(NC(=O)N2CCN(S(=O)(=O)c3ccc4c(ccn4C)c3)CC2)cc1 as the molecule, how does the Potency read?
Its Potency is active: 39.8 µM.

With CCCC(=O)Nc1nc(C)c(-c2csc(Nc3ccccc3C)n2)s1 as the molecule, how does the Potency read?
The Potency was inconclusive: 28.2 µM [activator, single point].

With CCc1ccc(C(=O)c2cn(CC(=O)Nc3ccc(F)cc3)c3ccc(OC)cc3c2=O)cc1 as the molecule, how does the Potency read?
Its Potency is “inactive”.

For COc1ccccc1-c1ccc2c(c1)C(C)(Cc1cc(Cl)ccc1C(F)(F)F)C(=O)N2 (stereo not given), which Potency is on record?
The Potency was inconclusive: 28.2 µM [activator, partial curve, poor fit].

With COc1ccc(-c2cc(OC(=O)c3ccc(Cl)cc3)c3c(C)oc(C)c3c(=O)c2)cc1 as the molecule, how does the Potency read?
The Potency was inconclusive: 17.8 µM [activator, partial curve, poor fit].

Which Potency does the source give for COc1ccc(C(=O)Oc2c(OC)cc(C(=S)N3CCOCC3)cc2OC)cc1 here?
Its Potency is inconclusive: 31.6 µM [activator, single point].

Which Potency does the source give for Cc1cccc(CN2C(=O)c3ccccc3S(=O)(=O)c3ccc(C(=O)NCCC4=CCCCC4)cc32)c1 here?
The Potency was inconclusive: 14.1 µM [activator, partial curve].

For COc1ccc(CNC(=O)Nc2nc(C(N)Cc3ccc(F)cc3)cs2)cc1 (stereo not given), which Potency is on record?
The Potency was inconclusive: 31.6 µM [activator, partial curve, poor fit].

For CN(C)c1ccc(Nc2nc(-c3cccnc3)cs2)cc1, which Potency is on record?
The Potency was inconclusive: 56.2 µM [activator, partial curve, poor fit].

With O=C(Nc1ccc2c(c1)OCCO2)c1cccc(Br)c1 as the molecule, how does the Potency read?
The Potency was “inactive”.

With O=C(CSc1nnc(CNc2ccc(Cl)cc2)o1)Nc1nc2c(s1)CCCC2 as the molecule, how does the Potency read?
The Potency was active: 35.5 µM.

Which Potency does the source give for Cc1ccc(CSc2ncc(Cl)c(C(=O)NCCc3ccc(S(N)(=O)=O)cc3)n2)cc1 here?
The Potency was “inactive”.

For COc1ccc(/C=N/NC(=O)c2ccc(CSc3nc(C)cc(C)n3)cc2)cc1O, which Potency is on record?
The Potency was inconclusive: 11.2 µM [activator, partial curve].

For N=c1c2c(n(Cc3ccc([N+](=O)[O-])cc3)c3c1CCC3)CCCC2, which Potency is on record?
The Potency was “inactive”.

Which Potency does the source give for O=C(c1ccc(Cn2cc(Cl)cn2)cc1)N1CCN(c2ccccc2)CC1 here?
Its Potency is inconclusive: 31.6 µM [activator, partial curve].

With Cn1c(=O)c2c([nH]c(OCc3ccc(Cl)cc3Cl)[n+]2Cc2ccc(F)cc2)n(C)c1=O as the molecule, how does the Potency read?
Its Potency is inconclusive: 39.8 µM [activator, single point].

With CCN(c1cccc2ccccc12)S(=O)(=O)c1cccs1 as the molecule, how does the Potency read?
The Potency was “inactive”.

For CCn1cc(Br)c(C(=O)Nc2ccc(Cl)cc2Cl)n1, which Potency is on record?
Its Potency is “inactive”.

For CCOC(=O)c1sc2nc(CSc3ccccc3)nc(N3CCC(C(N)=O)CC3)c2c1C, which Potency is on record?
Its Potency is inconclusive: 28.2 µM [activator, partial curve, poor fit].

Which Potency does the source give for COc1ccc(Cc2n[nH]c(=S)n2Cc2ccccc2)cc1Cl here?
The Potency was inconclusive: 35.5 µM [activator, partial curve, poor fit].

Which Potency does the source give for Cc1cccc(OCC(=O)Nc2ccc3c(c2)nc(CCNC(=O)c2ccco2)n3C)c1 here?
The Potency was “inactive”.

For COc1ccc([N+](=O)[O-])cc1N(CC(O)Cn1nnc2ccccc21)S(=O)(=O)c1ccc(C)cc1 (stereo not given), which Potency is on record?
Its Potency is inconclusive: 50.1 µM [activator, single point].

Which Potency does the source give for Cc1ccc(-c2noc(C3CCCN(C(=O)c4ccccc4Br)C3)n2)o1 (stereo not given) here?
The Potency was inconclusive: 10 µM [activator, partial curve].

For CCOC(=O)c1c(C)oc2nc(C)nc(NC(C)c3ccccc3)c12 (stereo not given), which Potency is on record?
Its Potency is “inactive”.

For CCOC(=O)C1=C(C)NC2=C(C(=O)CC(C)(C)C2)C1c1ccsc1 (stereo not given), which Potency is on record?
Its Potency is “inactive”.

With COc1ccc(N2C(=O)C3CCCN3C2c2ccc(C)o2)cc1Cl (stereo not given) as the molecule, how does the Potency read?
The Potency was inconclusive: 20 µM [activator, partial curve, poor fit].

For Cc1ccc2c(c1)C(c1ccc(F)cc1)N(C(=O)c1ccc(S(=O)(=O)N(C)C)cc1)CC(=O)N2 (stereo not given), which Potency is on record?
Its Potency is inconclusive: 35.5 µM [activator, single point].

For CC(C)(C)OC(=O)N1CCC(C(=O)N2CCOCC2)CC1, which Potency is on record?
Its Potency is inconclusive: 0.794 µM [activator, full curve, poor fit].

For c1ccc2c(c1)OCC(c1nn3c(Cn4nnc5ccccc54)nnc3s1)O2 (stereo not given), which Potency is on record?
Its Potency is active: 31.6 µM.

Which Potency does the source give for COc1ccc(CNC(=O)COC(=O)c2cc(-c3cccs3)nc3ccccc23)cc1OC here?
The Potency was inconclusive: 35.5 µM [activator, partial curve, poor fit].

With CCCC1CCC2(CC1)CCC2OC(=S)Nc1ccccc1C(F)(F)F (stereo not given) as the molecule, how does the Potency read?
The Potency was “inactive”.

Which Potency does the source give for COc1ccc(-c2csc(Nc3ncccc3C)n2)cc1 here?
Its Potency is “inactive”.

With CN1C(=O)NC(c2ccccc2)C2=C1CN(c1cccc(C(F)(F)F)c1)C2=O (stereo not given) as the molecule, how does the Potency read?
The Potency was inconclusive: 22.4 µM [activator, partial curve, poor fit].

For C[C@@H]1CN([C@@H](C)CO)C(=O)c2cc(NC(=O)Nc3ccc(F)cc3)ccc2O[C@@H]1CN(C)Cc1ccc(Oc2ccccc2)cc1, which Potency is on record?
The Potency was inconclusive: 22.4 µM [activator, partial curve, poor fit].

With COc1ccc(CCN2C(=O)N(c3ccc(F)cc3)C(=O)C2CC(=O)Nc2ccc(F)c(F)c2)cc1 (stereo not given) as the molecule, how does the Potency read?
Its Potency is inconclusive: 35.5 µM [activator, partial curve, poor fit].

With CCCN1CCN(C(=O)c2ccc3[nH]c(C)c(C)c3c2)CC1 as the molecule, how does the Potency read?
Its Potency is “inactive”.

With O=C(CSc1n[nH]c(-c2ccccc2Cl)n1)N1CCN(c2ccccc2F)CC1 as the molecule, how does the Potency read?
The Potency was “inactive”.

With O=C(O)c1ccc(NC(=O)c2cccc(S(=O)(=O)Nc3ccc(C(=O)O)cc3)c2)cc1 as the molecule, how does the Potency read?
Its Potency is “inactive”.

Which Potency does the source give for Clc1cccc(-c2nnc(SCc3nc4ccccc4[nH]3)n2Cc2ccco2)c1 here?
The Potency was inconclusive: 12.6 µM [activator, partial curve].

For Cc1cc(C)cc(N(CC(=O)Nc2cccc(C)n2)S(=O)(=O)c2c(C)noc2C)c1, which Potency is on record?
The Potency was inconclusive: 11.2 µM [activator, partial curve].

With O=C(Nc1cccc2ccccc12)C1CCN(C(=O)NCc2ccccc2)CC1 as the molecule, how does the Potency read?
Its Potency is inconclusive: 39.8 µM [activator, partial curve, poor fit].

Which Potency does the source give for Cc1c(C(=O)OC/C(O)=C(\C#N)c2nc3ccccc3[nH]2)oc2ccc(Br)cc12 here?
The Potency was inconclusive: 50.1 µM [activator, single point].

For CSc1ncc(C(=O)N2CCN(c3ccc(F)cc3)CC2)c(C)n1, which Potency is on record?
Its Potency is “inactive”.

With O=C(Nc1ccc2c(c1)OCO2)c1cc(C2CCCCN2C(=O)c2ccc3ccccc3c2)on1 (stereo not given) as the molecule, how does the Potency read?
Its Potency is active: 35.5 µM.

Which Potency does the source give for Cc1cc(C)c2c(CN3CCN(C/C=C/c4ccccc4)CC3)cc(=O)oc2c1 here?
Its Potency is inconclusive: 7.94 µM [activator, partial curve, poor fit].

Which Potency does the source give for COc1cccc(-c2nn(C)c3sc(C(=O)N4CCN(c5cccc(C)c5)C(C)C4)cc23)c1 (stereo not given) here?
The Potency was inconclusive: 28.2 µM [activator, single point].

Which Potency does the source give for COc1ccc([C@H]2/C=C\CN(C(=O)c3ccccc3)[C@@H](C)C(=O)N2Cc2ccc(F)cc2)cc1 here?
Its Potency is inconclusive: 20 µM [activator, partial curve].

For COc1cc(C(=O)N2CCc3c([nH]c4ccccc34)C2c2ccccc2)cc(OC)c1OC (stereo not given), which Potency is on record?
Its Potency is inconclusive: 8.91 µM [activator, full curve].

Which Potency does the source give for CN(CC1COc2ccccc2O1)C(=O)CSc1ncnc2sccc12 (stereo not given) here?
Its Potency is inconclusive: 22.4 µM [activator, partial curve].

Which Potency does the source give for O=C(NC(NC(=O)c1ccccc1)c1ccccc1)c1ccccc1 here?
The Potency was inconclusive: 25.1 µM [activator, single point].

For Cc1cccc(N(CC(=O)NCCSc2ccc(Cl)cc2)S(=O)(=O)c2ccccc2)c1C, which Potency is on record?
Its Potency is inconclusive: 3.55 µM [activator, full curve].

For COc1ccc2ccccc2c1-c1c(C(=O)c2ccc(Br)cc2)[nH]c(N)c1C(=O)NC1CCCCC1, which Potency is on record?
Its Potency is “inactive”.

For CCCCOC(=O)c1ccc(NC(=O)Cc2coc3ccc(C(C)C)cc23)cc1, which Potency is on record?
The Potency was “inactive”.

Which Potency does the source give for COc1ccc2sc(-c3ccc(S(C)(=O)=O)cc3)c(C#CCO)c2c1 here?
Its Potency is inconclusive: 50.1 µM [activator, single point].

Which Potency does the source give for COc1ccc(S(=O)(=O)NC(=O)C2(C)CCN2C(=O)COc2ccc(Cl)cc2)cc1OC (stereo not given) here?
Its Potency is “inactive”.

Which Potency does the source give for CCN1CCN(CC(=O)N/N=C/c2cc(Br)cs2)CC1 here?
Its Potency is “inactive”.

For CCOC(=O)CNC(=O)Cn1cnc2c(nnn2-c2ccc(C)cc2)c1=O, which growth rescue (activation) is on record?
Its growth rescue (activation) is inconclusive: 16.2% [activator].

With CCOC(=O)[C@H]1[C@H]2COc3ccc(Cl)cc3[C@@H]2N2C(=O)c3cc(Br)ccc3NC(=O)[C@@]12C as the molecule, how does the Potency read?
The Potency was inconclusive: 28.2 µM [activator, partial curve, poor fit].

For COc1nc(Nc2ccc(C(C)C)cc2)nc(OC)n1, which Potency is on record?
The Potency was inconclusive: 14.1 µM [activator, partial curve, poor fit].

For CCO[C@@H]1OC(C(=O)NCc2ccccc2)=C[C@H](c2csc3ccccc23)[C@H]1CCCO, which Potency is on record?
Its Potency is inconclusive: 22.4 µM [activator, single point].

For CC1C(=O)N2CCCc3cc(S(=O)(=O)N(C)Cc4ccccc4)cc1c32 (stereo not given), which Potency is on record?
The Potency was “inactive”.

For COc1cccc(-c2ccc(CC[C@H]3O[C@H]4CC[C@@H](CO)O[C@H]4C[C@H]3NS(C)(=O)=O)cc2)c1, which Potency is on record?
The Potency was inconclusive: 31.6 µM [activator, single point].
